We go through 114 compounds from PubChem BioAssay AID488969 (Vanderbilt High Throughput Screening Facility, 2010).

The full ranking holds about 110,000 compounds; the median of “z-score” is about -0.1, and the highest 2% start at about 2. The list shows a part of the results. Activity calls are given as the source filed them.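 How the source made its calls: active means z-score in the third read window above 3 or below -3; inactive means the rest.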

This assay addresses Metabotropic glutamate receptor 8 (Rattus norvegicus) (UniProt P70579). Nature of the assay: rat mGluR8 modulators via GIRK flux, primary screen, cell-based, thallium flux, HTS (AID 488969). The conditions noted are these: HEK293 rat mGluR8, GIRK (G protein-gated inwardly rectifying potassium channel) thallium flux, FluoZin2; at 10 µM; stronger effect = higher value; submaximal glutamate (EC20) added with thallium.
Sequence of UniProt P70579 (P70579 whole entry, looked up): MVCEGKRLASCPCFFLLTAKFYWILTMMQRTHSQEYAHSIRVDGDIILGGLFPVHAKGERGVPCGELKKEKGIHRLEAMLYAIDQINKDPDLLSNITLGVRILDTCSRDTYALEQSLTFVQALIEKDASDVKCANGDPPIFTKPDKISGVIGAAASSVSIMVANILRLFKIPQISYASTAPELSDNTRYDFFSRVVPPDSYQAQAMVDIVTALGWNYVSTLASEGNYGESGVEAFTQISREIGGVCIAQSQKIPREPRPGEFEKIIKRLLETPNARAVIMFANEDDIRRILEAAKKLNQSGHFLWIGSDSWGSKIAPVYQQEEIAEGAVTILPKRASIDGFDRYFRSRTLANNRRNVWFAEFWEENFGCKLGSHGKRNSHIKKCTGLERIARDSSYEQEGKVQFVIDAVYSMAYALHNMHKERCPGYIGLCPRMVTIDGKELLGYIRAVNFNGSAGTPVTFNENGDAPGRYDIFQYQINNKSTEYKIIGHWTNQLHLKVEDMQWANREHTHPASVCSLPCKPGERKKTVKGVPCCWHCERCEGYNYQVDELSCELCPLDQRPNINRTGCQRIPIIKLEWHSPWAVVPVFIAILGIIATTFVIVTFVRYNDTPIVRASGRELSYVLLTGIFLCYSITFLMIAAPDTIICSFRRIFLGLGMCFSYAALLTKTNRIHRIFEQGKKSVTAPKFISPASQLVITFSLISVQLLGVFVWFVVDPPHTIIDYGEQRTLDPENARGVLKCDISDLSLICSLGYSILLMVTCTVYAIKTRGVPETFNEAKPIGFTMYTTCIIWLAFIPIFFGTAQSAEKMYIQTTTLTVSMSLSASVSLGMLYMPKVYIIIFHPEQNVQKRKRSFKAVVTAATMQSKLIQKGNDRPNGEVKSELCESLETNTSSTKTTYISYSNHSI
On to `COC(=O)c1cc2occc2n1CC(=O)Nc1ccc(OC)c(OC)c1OC`, for which the z-score is -0.118. The same measure for `O=C1C=C(O)CC(c2ccc(Cl)cc2)C1` (centres undefined): 0.109; for `Cc1cc(C)c2nc(SC(C)C#N)cc(C)c2c1` (centres undefined): 0.103; for `CC(C)(Cl)C1Cc2cc3ccc(=O)oc3cc2O1` (centres undefined): -0.056.

`O=S(=O)(/N=C(\c1ccccc1)N1CCOCC1)c1ccc(Cl)cc1`: the z-score was -0.155. The figure for `O=C(CCCc1cccs1)Nc1nc(-c2ccc(F)cc2)cs1` is -0.134; for `Clc1ccc(CSc2snnc2-c2ccccc2)cc1` it is -0.0684; for `CCOC(=O)CSCC(=O)N1N=C(c2cccs2)CC1c1ccc(F)cc1` (centres undefined) it is -0.537. The same measure for `CC(=O)N1C(=O)N(C(C)=O)C2C1N(C(C)=O)C(=O)N2C(C)=O` (centres undefined): -0.295; for `CCc1ccc(OCC(=O)NC(=S)Nc2ccc(S(=O)(=O)NC3CCCCC3)cc2)cc1`: 0.997. The same measure for `Cc1csc(NC(=S)Nc2cccc(Cl)c2)n1`: active: 14.7; for `Cc1ccc(NC2=C/C(=N/S(=O)(=O)c3cccs3)c3ccccc3C2=O)cc1`: -0.0469. Turning to `O=C(Nc1ccc2c(c1)OCCO2)c1cnc2ccccn2c1=O`, the z-score is -1.29. The same measure for `CCOC(=O)CNC(=O)CSc1ncnc2c1cnn2Cc1ccccc1`: 1.54; for `COc1ccccc1C(=O)Nn1cnc2ccccc2c1=O`: 0.366; for `COc1cccc(C(=O)COc2ccccc2N2C(=O)C3C4C=CC(C4)C3C2=O)c1` (centres undefined): -0.177.

In the case of `O=S(=O)(/N=C(\Nc1ccc(F)cc1)C(F)(F)F)c1ccccc1`, the z-score was -0.0535. The same measure for `c1ccc(Cn2c(SCc3nc4ccccc4s3)nnc2-c2ccco2)cc1`: -2.72.

Take `COc1c(O)ccc2cnn(-c3ccccc3C)c(=O)c12`: the z-score was -0.0686. Turning to `COc1cc(CNCc2ccccn2)ccc1OCc1ccc(Cl)cc1Cl`, the z-score came to 0.564. Compound `CCS(=O)(=O)n1nc(NCc2cccc(OC)c2)nc1NCc1cccc(OC)c1` yielded a z-score of 0.0211.

Turning to `O=C(C1CC(=O)N(C2CCCC2)C1)N1CCN(c2ccc(F)cc2)CC1` (centres undefined), the z-score amounted to 0.304. The figure for `O=S1(=O)C=C(Oc2ccc3ccccc3c2)c2ccccc21` is 0.0277. The same measure for `COc1ccc(C(=O)NNC(=O)CSc2nnc(COc3ccc4ccccc4c3)n2C)cc1`: -0.222; for `O=C(N1CCOCC1)C12CC3CC(C1)CC(C(=O)N1CCOCC1)(C3)C2`: 0.153; for `O=C(Nc1ccc2c(c1)OCO2)N1CCN(C(=O)C2CCCO2)CC1` (centres undefined): 2.05. The same measure for `Cc1ccc(N2CN=C(c3ccccc3)NC2=S)cc1`: 0.328; for `Cc1ccc(OCC(=O)NC(=S)Nc2cccc(NC(=O)c3ccc(Cl)cc3Cl)c2)cc1`: 0.148; for `O=C(NC1CCCCC1)Nn1c(-c2ccccc2)nc2ccccc2c1=O`: -0.211.

As to `CCC(=O)Nc1ccccc1C(=O)N1CCCC1`, the z-score stood at 0.0704. The same measure for `O=S(=O)(Cc1ccccc1)c1cnc2ccccc2n1`: 0.576. The same measure for `COC(=O)c1cc(OC)c(OC)cc1NC(=O)CSc1nnnn1Cc1ccccc1`: -0.845; for `Cc1ccc(S(=O)(=O)N(CC(=O)N=Nc2c(O)[nH]c3ccccc23)c2ccc(C)c(C)c2)cc1`: -0.128; for `Cc1cc(=O)n2[nH]c(N)c(N=Nc3ccccc3F)c2n1`: -0.231. The same measure for `CCc1ccc(NC(=O)CSc2nc3ccccc3c(=O)n2CCCC(=O)N2CCCC2)cc1`: -0.305; for `O=C(CSc1ccccn1)Nc1nc2ccc(Br)cc2s1`: -0.035; for `Cc1ccc(NC(=O)c2cccs2)cc1`: -0.00363. With `Cc1cc(=O)oc2cc(OC(=O)CCN3C(=O)c4ccccc4C3=O)ccc12`, the z-score is -0.209. The figure for `CCOC(=O)C1=C(C)NC(=O)NC1c1ccc(C)o1` (centres undefined) is 0.0551; for `Cc1cccc(NC(=S)N2CCN(Cc3ccccc3)CC2)c1C` it is -0.15. The same measure for `CC(C)Cc1cc(C(=O)NCc2cccnc2)no1`: -0.807; for `CCOC(=O)c1c(NC(=S)Nc2cccc(C)c2)sc2c1CC(C)(C)SC2`: 0.0638; for `O=C1c2cccnc2C(O)N1C1CCCCC1` (centres undefined): 0.797. The same measure for `O=C(O)C(Cc1ccccc1)NS(=O)(=O)c1ccc2c(c1)OCCO2` (centres undefined): -0.105; for `Cc1ccccc1Nc1sc(C(=O)Nc2cccc(Cl)c2)c(N)c1C(N)=O`: 0.124.

Turning to `O=C(NCCCN1CCOCC1)C1COc2ccccc2O1` (centres undefined), the z-score is -0.086.

`Cc1ccccc1CSc1nsc(N)n1` displayed a z-score of 0.11.

`Cc1cc(N2CCN(S(=O)(=O)c3ccc(Cl)cc3)CC2)c2ccccc2n1`: the z-score was -0.54. The same measure for `C/C(N)=C(/C#N)C(=O)COC(=O)CC1CCCC1`: 1.77; for `COCCN(C(=O)CCC(=O)Nc1cccnc1)C(C(=O)NC1CCCCC1)c1ccccc1` (centres undefined): -0.139; for `O=C1S/C(=C\c2ccc(N3CCOCC3)o2)C(=O)N1Cc1ccc(F)cc1`: 0.0599. `CC12CCC(C(=O)N(CCC#N)CCC#N)(CC1=O)C2(C)C` (centres undefined) registered a z-score of 0.861. The same measure for `O=C(COC(=O)c1ccc(S(=O)(=O)NCc2ccco2)cc1)c1ccccc1`: 0.134.

`O=C(NNC(=O)c1ccccc1F)c1cccc(Cl)c1` came in with a z-score of 0.0326. The figure for `CC(=O)NCCn1c(SCc2ccccc2C)nc2ccccc2c1=O` is -0.494. The same measure for `CCC1SC2=NC(C)=C(C(=O)OCC(C)C)C(/C=C/c3ccccc3OC)N2C1=O` (centres undefined): -0.0643; for `CCOC(=O)COn1c(-c2cccc(Cl)c2)nc2ccc([N+](=O)[O-])cc21`: 0.359; for `O=C(NCc1cn2ccccc2n1)c1ccc2c(c1)OCO2`: 0.686.

In the case of `Cc1ccc(C(=O)CN2/C(=C(\O)c3ccccc3)C(=O)c3ccccc3S2(=O)=O)c(C)c1`, the z-score stood at 0.0903. The compound `O=C1C2CCCN2C(c2ccccc2)N1c1ccc(Cl)cc1` (centres undefined) showed a z-score of 0.65. Take `O=C(c1cccc(Cl)c1)N1CCN(C(=O)c2ccccc2F)CC1`: the z-score is -0.331. `c1ccc(CCn2c(SCc3ccccc3)nnc2-c2ccncc2)cc1` gave a z-score of 0.133. The same measure for `O=C(Nc1nc(-c2cccs2)cs1)C1=COCCO1`: 0.306.

Take `CCOC(=O)COc1c(C=O)cc(Br)cc1OC`: the z-score is -0.935. The same measure for `Cc1c(C(=O)OCC(=O)c2ccc3c(c2)OCCO3)oc2ccccc12`: -0.038; for `CCN1CCN(C(=S)Nc2cccc([N+](=O)[O-])c2)CC1`: -0.338.

In turn, `CCOc1ccc(C(=O)Nc2nncs2)cc1OCC` showed a z-score of 0.0568. With `CCOC(=O)N1CCN(C(=O)CSCC(=O)N=c2sc3ccccc3n2C)CC1`, the z-score was -0.142. The figure for `CCOc1cc(NC(=S)NCCCN2CCOCC2)c(OCC)cc1NC(=O)C1CC1` is -0.196; for `COc1cc2c3c(c1)-c1c(sn(-c4cc(OC)ccc4OC)c1=S)C(C)(C)N3C(=O)C2=O` it is -0.000716. Take `COC(=O)CNC(=O)c1cccc(F)c1`: the z-score was -0.354.

In turn, `CCOC(=O)c1sc(N)nc1-c1ccccc1` displayed a z-score of 0.0169. On to `COc1ccc(NC(=O)c2ccc(NCCCN3CCOCC3)c([N+](=O)[O-])c2)cc1`, for which the z-score was -0.0464. Consider `CCc1nnc(SCC(=O)Nc2ccc(N3CCOCC3)cc2)o1`, for which the z-score was -0.0745. The figure for `O=C(CCCOc1ccc(Cl)cc1)NCC1CCCO1` (centres undefined) is -0.208. The figure for `CC(C)CCNC(=O)CCCOc1ccccc1` is -0.735; for `COc1ccc2ccccc2c1CNCc1ccccn1` it is 0.77. The same measure for `COC(=O)c1ccc(C(=O)OC)c(NC(=O)c2cc3ccccc3o2)c1`: -0.175. On to `COC(=O)c1sccc1NC(=O)C1CC=CCC1C(=O)O` (centres undefined), for which the z-score is -0.091. The figure for `Cc1cc(-c2[nH]nc3c2C(c2ccc(Cl)cc2)C(C#N)=C(N)O3)c(C)s1` (centres undefined) is -1.11; for `CCOC(=O)C1CCN(C(=O)c2ccc3c(c2)OCO3)CC1` it is 0.189. `O=C(O)c1ccc(CSCc2ccccc2F)o1`: the z-score was 0.24.

`C=CCn1c(COc2ccccc2F)nnc1SCCN1C(=O)c2ccccc2C1=O`: the z-score is -0.095.

For `O=C(CSc1ccc(-c2cccs2)nn1)N1CCCCC1`, the z-score is -0.229. The figure for `CC1(C)N=C(c2ccccc2)C(=O)N1` is -0.119; for `COc1ccc(NC(=O)c2ccc3nccnc3c2)cc1` it is -0.263. Turning to `CCC(NC(=O)c1ccccc1NC(=O)c1ccc(C)cc1)C(=O)O` (centres undefined), the z-score is -0.559. The compound `CC(=O)c1c(O)cc(C)n(Cc2ccccc2)c1=O` returned a z-score of 0.252. The same measure for `COc1ccc(/C=N/S(=O)(=O)c2cccs2)cc1`: -0.44.

As to `Cc1snc(SCC(=O)N/N=C(\N)COc2ccc(F)cc2)c1C#N`, the z-score came to 0.165.

As to `COc1ccc(S(=O)(=O)N(Cc2cccs2)C2CCCC2)cc1`, the z-score is -0.28. As to `CCOC(=O)C(C)CC(C)C(=O)N1CCOCCOCCN(C(=O)C(C)CC(C)C(=O)OCC)CCOCC1` (centres undefined), the z-score is -0.176. The figure for `COc1ccc(N=c2oc3cc(O)ccc3cc2C(=O)NCC2CCCO2)c(OC)c1` (centres undefined) is -0.403; for `O=C(CN1C(=O)CNC1=O)Nc1cccc(C(F)(F)F)c1` it is -0.0494; for `Cn1c(=O)c2cn(-c3ccccc3)cc2n(C)c1=O` it is -0.529. The same measure for `CC(C)CC(=O)NCC(C)NC(=O)CC(C)C` (centres undefined): 0.0425; for `CCn1c(CC(C)C)n[nH]c1=S`: 0.226; for `Cc1cc(C)nc(SCc2nnc(SCc3ccccc3Cl)o2)n1`: -0.23. In the case of `COc1ccc(-c2noc(CCC(=O)N3CCC(C)CC3)n2)cc1`, the z-score is -0.232. The same measure for `Cc1ccc(-c2nnn(CC(=O)N(c3ccccc3F)C(C(=O)NCC3CCCO3)c3c[nH]c4ccccc34)n2)cc1` (centres undefined): -0.262; for `O=C(CSc1nc(-c2ccco2)cc(C(F)(F)F)n1)Nc1ccc(C(=O)N2CCOCC2)cc1`: -0.356; for `CN1CCN(c2ccc(Cl)cc2NC(=O)c2ccc(S(=O)(=O)N(C)C)cc2)CC1`: 0.0426. The same measure for `Cc1ccc(Oc2nccc(-c3ccc(Cl)cc3)n2)cc1`: 0.323. The same measure for `O=C(CSc1ccc(Cl)cc1)OCc1nnc(-c2ccccc2)o1`: 0.995.

The compound `CCCCN(CC)S(=O)(=O)N1CCC(C(=O)NCCCN2CCOCC2)CC1` showed a z-score of 0.383. The same measure for `Cc1cc(C)n(C(=O)Cn2nc(C(F)F)cc2C)n1`: 0.339.

Regarding `CCOC(=O)/C=C1\CC(=O)Nc2cc(C)c(C)cc2N1`, the z-score was found to be 0.197. Regarding `COc1cccc2c(C)nc(Nc3nc(CSc4nnc(C)s4)cc(=O)[nH]3)nc12`, the z-score amounted to 0.0201.

The compound `COC(=O)CSc1nnc(-c2cccnc2)n1-c1cccc(OC)c1` yielded a z-score of 0.978. As for `O=C(c1cc(-c2ccncc2)nc2ccc(Br)cc12)N1CCN(c2ccccn2)CC1`, the z-score is -0.181. The same measure for `Cc1cc(N2CCN(C(=O)c3ccco3)CC2)n2nc(C)c(-c3ccccc3)c2n1`: -0.567; for `COC(=O)c1cc(OC)c(OC)cc1NC(=S)N1CCC(C(N)=O)CC1`: -0.145; for `CN1C(=O)c2cccc3c(S(=O)(=O)NCc4ccco4)ccc1c23`: 0.516. The figure for `CCc1ccc(C(C)NC(=O)Cn2cnc3c(=O)n(C)c(=O)n(C)c32)cc1` (centres undefined) is -0.0504.
